{"source": "paper PMC12820563", "about": "“FoxP3 forms a head-to-head dimer in vivo and stabilizes its multimerization on adjacent microsatellites”", "note": "This is one part of the list.", "data": [{"biological_target": "T1, MBP-FoxP1dN (Mus musculus, UniProt P58462 326-579)", "T1 sequence": "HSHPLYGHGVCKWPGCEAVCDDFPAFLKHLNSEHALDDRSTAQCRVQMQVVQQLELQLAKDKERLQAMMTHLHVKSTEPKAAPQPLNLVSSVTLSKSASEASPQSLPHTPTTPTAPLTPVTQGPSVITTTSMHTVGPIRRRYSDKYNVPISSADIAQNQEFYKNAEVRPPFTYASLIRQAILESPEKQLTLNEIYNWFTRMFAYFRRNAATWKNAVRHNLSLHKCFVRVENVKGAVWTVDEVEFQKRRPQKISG", "experiment": "PD-seq (MBP pull-down with sequencing); 20 mM Tris-HCl pH 7.5, 100 mM NaCl, 1.5 mM MgCl2, 0.4 uM protein, 0.1 uM dsDNA library, 30 min, room temperature, amylose pull-down; high values mean tight binding", "details": "protein: recombinant; tags: His6-MBP; chain copies: 2; dsDNA, one strand shown", "how_it_was_run": "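A degenerate double-stranded DNA library, filled in with Klenow, was added at 0.1 µM to 0.4 µM His6-MBP-tagged mouse FoxP3 or FoxP1 fragment lacking the N-terminus, expressed in E. coli. Incubation lasted 30 min at room temperature in Tris pH 7.5 buffer with NaCl and MgCl2, after which complexes were collected on amylose resin, washed three times, digested with proteinase K to free the DNA, barcoded by PCR and sequenced by Illumina. Binding is the pooled-replicate reads-per-million enrichment of pull-down over input.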", "values": [{"sequence": "GATGATTGTTCTCCCAGCTGATGAATTCGAACGCTCGAGTAAACAAATTTTCCTAATCTTTCTGTTCAAGCGCCATCTAC", "binding signal": "0.872 RPM ratio (pull-down/input)"}, {"sequence": "GATGATTGTTCTCCCAGCTGATGAATTAAGGTCCTCGAGTAAACAAATTTTCCTAATCTTTCTGTTCAAGCGCCATCTAC", "binding signal": "0.832 RPM ratio (pull-down/input)"}, {"sequence": "GATGATTGTTCTCCCAGCTGATGAATTCCTGTGCTCGAGTAAACAAATTTTCCTAATCTTTCTGTTCAAGCGCCATCTAC", "binding signal": "0.908 RPM ratio (pull-down/input)"}, {"sequence": "GATGATTGTTCTCCCAGCTGATGAATTCTCAAGCTCGAGTAAACAAATTTTCCTAATCTTTCTGTTCAAGCGCCATCTAC", "binding signal": "0.86 RPM ratio (pull-down/input)"}, {"sequence": "GATGATTGTTCTCCCAGCTGATGAATTGTGGAATTCGAGTAAACAAATTTTCCTAATCTTTCTGTTCAAGCGCCATCTAC", "binding signal": "1.01 RPM ratio (pull-down/input)"}, {"sequence": "GATGATTGTTCTCCCAGCTGATGAATTGCGAACGTCGAGTAAACAAATTTTCCTAATCTTTCTGTTCAAGCGCCATCTAC", "binding signal": "1.03 RPM ratio (pull-down/input)"}, {"sequence": "GATGATTGTTCTCCCAGCTGATGAATTCGGACAGTCGAGTAAACAAATTTTCCTAATCTTTCTGTTCAAGCGCCATCTAC", "binding signal": "0.795 RPM ratio (pull-down/input)"}, {"sequence": "GATGATTGTTCTCCCAGCTGATGAATTAGGAATATCGAGTAAACAAATTTTCCTAATCTTTCTGTTCAAGCGCCATCTAC", "binding signal": "1.07 RPM ratio (pull-down/input)"}, {"sequence": "GATGATTGTTCTCCCAGCTGATGAATTCTGGGTATCGAGTAAACAAATTTTCCTAATCTTTCTGTTCAAGCGCCATCTAC", "binding signal": "0.839 RPM ratio (pull-down/input)"}, {"sequence": "GATGATTGTTCTCCCAGCTGATGAATTGGGGATTTCGAGTAAACAAATTTTCCTAATCTTTCTGTTCAAGCGCCATCTAC", "binding signal": "0.909 RPM ratio (pull-down/input)"}, {"sequence": "GATGATTGTTCTCCCAGCTGATGAATTGGAGCGGTCGAGTAAACAAATTTTCCTAATCTTTCTGTTCAAGCGCCATCTAC", "binding signal": "0.777 RPM ratio (pull-down/input)"}, {"sequence": "GATGATTGTTCTCCCAGCTGATGAATTACTATACTCGAGTAAACAAATTTTCCTAATCTTTCTGTTCAAGCGCCATCTAC", "binding signal": "1.14 RPM ratio (pull-down/input)"}, {"sequence": "GATGATTGTTCTCCCAGCTGATGAATTCGCCGTGTCGAGTAAACAAATTTTCCTAATCTTTCTGTTCAAGCGCCATCTAC", "binding signal": "0.828 RPM ratio (pull-down/input)"}, {"sequence": "GATGATTGTTCTCCCAGCTGATGAATTCGGCATTTCGAGTAAACAAATTTTCCTAATCTTTCTGTTCAAGCGCCATCTAC", "binding signal": "0.93 RPM ratio (pull-down/input)"}, {"sequence": "GATGATTGTTCTCCCAGCTGATGAATTTGTGCCGTCGAGTAAACAAATTTTCCTAATCTTTCTGTTCAAGCGCCATCTAC", "binding signal": "1.05 RPM ratio (pull-down/input)"}, {"sequence": "GATGATTGTTCTCCCAGCTGATGAATTATTGCTGTCGAGTAAACAAATTTTCCTAATCTTTCTGTTCAAGCGCCATCTAC", "binding signal": "1.67 RPM ratio (pull-down/input)"}, {"sequence": "GATGATTGTTCTCCCAGCTGATGAATTAGAACGATCGAGTAAACAAATTTTCCTAATCTTTCTGTTCAAGCGCCATCTAC", "binding signal": "0.879 RPM ratio (pull-down/input)"}, {"sequence": "GATGATTGTTCTCCCAGCTGATGAATTAGGCTCGTCGAGTAAACAAATTTTCCTAATCTTTCTGTTCAAGCGCCATCTAC", "binding signal": "0.761 RPM ratio (pull-down/input)"}, {"sequence": "GATGATTGTTCTCCCAGCTGATGAATTCACCATTTCGAGTAAACAAATTTTCCTAATCTTTCTGTTCAAGCGCCATCTAC", "binding signal": "0.937 RPM ratio (pull-down/input)"}, {"sequence": "GATGATTGTTCTCCCAGCTGATGAATTCTACGTATCGAGTAAACAAATTTTCCTAATCTTTCTGTTCAAGCGCCATCTAC", "binding signal": "1.01 RPM ratio (pull-down/input)"}, {"sequence": "GATGATTGTTCTCCCAGCTGATGAATTATCATCTTCGAGTAAACAAATTTTCCTAATCTTTCTGTTCAAGCGCCATCTAC", "binding signal": "1.05 RPM ratio (pull-down/input)"}, {"sequence": "GATGATTGTTCTCCCAGCTGATGAATTACATACATCGAGTAAACAAATTTTCCTAATCTTTCTGTTCAAGCGCCATCTAC", "binding signal": "1.5 RPM ratio (pull-down/input)"}, {"sequence": "GATGATTGTTCTCCCAGCTGATGAATTATAAGCCTCGAGTAAACAAATTTTCCTAATCTTTCTGTTCAAGCGCCATCTAC", "binding signal": "0.944 RPM ratio (pull-down/input)"}, {"sequence": "GATGATTGTTCTCCCAGCTGATGAATTCCCCATTTCGAGTAAACAAATTTTCCTAATCTTTCTGTTCAAGCGCCATCTAC", "binding signal": "0.836 RPM ratio (pull-down/input)"}, {"sequence": "GATGATTGTTCTCCCAGCTGATGAATTCCAGGTGTCGAGTAAACAAATTTTCCTAATCTTTCTGTTCAAGCGCCATCTAC", "binding signal": "0.856 RPM ratio (pull-down/input)"}, {"sequence": "GATGATTGTTCTCCCAGCTGATGAATTGACCTCGTCGAGTAAACAAATTTTCCTAATCTTTCTGTTCAAGCGCCATCTAC", "binding signal": "0.929 RPM ratio (pull-down/input)"}, {"sequence": "GATGATTGTTCTCCCAGCTGATGAATTTCTTGATTCGAGTAAACAAATTTTCCTAATCTTTCTGTTCAAGCGCCATCTAC", "binding signal": "1.01 RPM ratio (pull-down/input)"}, {"sequence": "GATGATTGTTCTCCCAGCTGATGAATTGGTCGAATCGAGTAAACAAATTTTCCTAATCTTTCTGTTCAAGCGCCATCTAC", "binding signal": "0.945 RPM ratio (pull-down/input)"}, {"sequence": "GATGATTGTTCTCCCAGCTGATGAATTAGAGAACTCGAGTAAACAAATTTTCCTAATCTTTCTGTTCAAGCGCCATCTAC", "binding signal": "0.811 RPM ratio (pull-down/input)"}, {"sequence": "GATGATTGTTCTCCCAGCTGATGAATTACCGCGATCGAGTAAACAAATTTTCCTAATCTTTCTGTTCAAGCGCCATCTAC", "binding signal": "0.929 RPM ratio (pull-down/input)"}, {"sequence": "GATGATTGTTCTCCCAGCTGATGAATTAAGCTTGTCGAGTAAACAAATTTTCCTAATCTTTCTGTTCAAGCGCCATCTAC", "binding signal": "0.923 RPM ratio (pull-down/input)"}, {"sequence": "GATGATTGTTCTCCCAGCTGATGAATTCCCATAATCGAGTAAACAAATTTTCCTAATCTTTCTGTTCAAGCGCCATCTAC", "binding signal": "1.18 RPM ratio (pull-down/input)"}]}]}
